The other results are listed elsewhere or left out.
Experiments:
Assay in all cases: glycan array binding signal (z-score within array); higher = stronger binding
Details in all cases: glycan notation: IUPAC condensed, linker removed
Neu5Ac(a2-8)Neu5Ac = biological target: Neu5Ac(a2-8)Neu5Ac
How it was run: (§1)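 The binding signal is a Z-score computed within each array and averaged over linkers. Arrays of the same protein sequence at different concentrations or buffers were also averaged together. Data originate from 3228 arrays in the Consortium for Functional Glycomics database, kept only where the protein sequence was available.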

[1] = biological target: Neu5Ac(a2-8)Neu5Ac(a2-3)Gal(b1-3)GalNAc(b1-4)[Neu5Ac(a2-3)]Gal(b1-4)Glc
How it was run: as §1

[2] = biological target: Neu5Ac(a2-8)Neu5Ac(a2-3)Gal(b1-3)GalNAc(b1-4)[Neu5Ac(a2-8)Neu5Ac(a2-3)]Gal(b1-4)Glc
How it was run: as §1

[3] = biological target: Neu5Ac(a2-8)Neu5Ac(a2-3)Gal(b1-4)Glc
How it was run: as §1

[4] = biological target: Neu5Ac(a2-8)Neu5Ac(a2-3)Gal(b1-4)GlcNAc
How it was run: as §1

[5] = biological target: Neu5Ac(a2-8)Neu5Ac(a2-3)[Gal(b1-3)GalNAc(b1-4)]Gal(b1-4)Glc
How it was run: as §1

[6] = biological target: Neu5Ac(a2-8)Neu5Ac(a2-3)[GalNAc(b1-4)]Gal(b1-4)Glc
How it was run: as §1

[7] = biological target: Neu5Ac(a2-8)Neu5Ac(a2-8)Neu5Ac
How it was run: as §1

[8] = biological target: Neu5Ac(a2-8)Neu5Ac(a2-8)Neu5Ac(a2-3)Gal(b1-4)Glc
How it was run: as §1

[9] = biological target: Neu5Ac(a2-8)Neu5Ac(a2-8)Neu5Ac(a2-3)[Gal(b1-3)GalNAc(b1-4)]Gal(b1-4)Glc
How it was run: as §1

[10] = biological target: Neu5Ac(a2-8)Neu5Ac(a2-8)Neu5Ac(a2-3)[GalNAc(b1-4)]Gal(b1-4)Glc
How it was run: as §1

[11] = biological target: Neu5Ac(a2-8)Neu5Ac(a2-8)Neu5Ac(a2-8)Neu5Ac(a2-3)[GalNAc(b1-4)]Gal(b1-4)Glc
How it was run: as §1

[12] = biological target: Neu5Ac(a2-8)Neu5Gc(a2-3)Gal(b1-4)GlcNAc
How it was run: as §1

[13] = biological target: Neu5Ac(b2-6)Gal(b1-4)GlcNAc
How it was run: as §1

Neu5Ac(b2-6)GalNAc = biological target: Neu5Ac(b2-6)GalNAc
How it was run: as §1

[14] = biological target: Neu5Ac9Ac(a2-3)Gal(b1-3)GlcNAc
How it was run: as §1

[15] = biological target: Neu5Ac9Ac(a2-3)Gal(b1-4)GlcNAc
How it was run: as §1

[16] = biological target: Neu5Ac9Ac(a2-6)Gal(b1-4)GlcNAc
How it was run: as §1

[17] = biological target: Neu5Gc(a2-3)Gal(b1-3)GlcNAc
How it was run: as §1

[18] = biological target: Neu5Gc(a2-3)Gal(b1-3)[Fuc(a1-4)]GlcNAc
How it was run: as §1

Neu5Gc(a2-3)Gal(b1-4)Glc = biological target: Neu5Gc(a2-3)Gal(b1-4)Glc
How it was run: as §1

[19] = biological target: Neu5Gc(a2-3)Gal(b1-4)GlcNAc
How it was run: as §1

[20] = biological target: Neu5Gc(a2-3)Gal(b1-4)GlcNAc(b1-3)Gal(b1-4)GlcNAc(b1-2)Man(a1-3)[Neu5Gc(a2-3)Gal(b1-4)GlcNAc(b1-3)Gal(b1-4)GlcNAc(b1-2)Man(a1-6)]Man(b1-4)GlcNAc(b1-4)GlcNAc
How it was run: as §1

[21] = biological target: Neu5Gc(a2-3)Gal(b1-4)[Fuc(a1-3)]GlcNAc
How it was run: as §1

[22] = biological target: Neu5Gc(a2-6)Gal(b1-4)GlcNAc
How it was run: as §1

Neu5Gc(a2-6)GalNAc = biological target: Neu5Gc(a2-6)GalNAc
How it was run: as §1

[23] = biological target: Neu5Gc(a2-8)Neu5Ac(a2-3)Gal(b1-4)GlcNAc
How it was run: as §1

[24] = biological target: Neu5Gc(a2-8)Neu5Gc(a2-3)Gal(b1-4)GlcNAc
How it was run: as §1

[25] = biological target: Neu5Gc(a2-8)Neu5Gc(a2-3)Gal(b1-4)GlcNAc(b1-3)Gal(b1-4)GlcNAc
How it was run: as §1

[26] = biological target: Neu5Gc(a2-8)Neu5Gc(a2-6)Gal(b1-4)GlcNAc
How it was run: as §1

[27] = biological target: Neu5Gc(b2-6)Gal(b1-4)GlcNAc
How it was run: as §1

B1: Cohesin-hDECTIN-1 (Homo sapiens) (protein)
chain: LDITSHHHHHHDDLDAVRIKVDTVNAKPGDTVRIPVRFSGIPSKGIANCDFVYSYDPNVLEIIEIEPGDIIVDPNPDKSFDTAVYPDRKIIVFLFAEDSGTGAYAITKDGVFATIVAKVKEGAPNGLSVIKFVEVGGFANNDLVEQKTQFFDGGVNVGDTTEPATPTTPVTTPTTTDDLDAASSSPCPPNWIIYEKSCYLFSMSLNSWDGSKRQCWQLGSNLLKIDSSNELGFIVKQVSSQPDNSFWIGLSRPQTEVPWLWEDGSTFSSNLFQIRTTATQENPSPNCVWIHVSVIYDQLCSVPSYSICEKKFM
glycan array binding signal (z-score) (Neu5Ac(a2-8)Neu5Ac): -0.512 | glycan array binding signal (z-score) [1]: -0.325 | glycan array binding signal (z-score) [2]: -0.362 | glycan array binding signal (z-score) [3]: -0.4 | glycan array binding signal (z-score) [4]: 0.057 | glycan array binding signal (z-score) [5]: -0.161 | glycan array binding signal (z-score) [6]: 0.971 | glycan array binding signal (z-score) [7]: -0.31 | glycan array binding signal (z-score) [8]: -0.569 | glycan array binding signal (z-score) [9]: -0.332 | glycan array binding signal (z-score) [10]: 0.573 | glycan array binding signal (z-score) [11]: 0.696 | glycan array binding signal (z-score) [12]: -0.156 | glycan array binding signal (z-score) [13]: -0.362 | glycan array binding signal (z-score) (Neu5Ac(b2-6)GalNAc): -0.285 | glycan array binding signal (z-score) [14]: 0.799 | glycan array binding signal (z-score) [15]: -0.414 | glycan array binding signal (z-score) [16]: -0.335 | glycan array binding signal (z-score) [17]: 0.164 | glycan array binding signal (z-score) [18]: -0.251 | glycan array binding signal (z-score) (Neu5Gc(a2-3)Gal(b1-4)Glc): -0.271 | glycan array binding signal (z-score) [19]: -0.334 | glycan array binding signal (z-score) [20]: 0.103 | glycan array binding signal (z-score) [21]: -0.296 | glycan array binding signal (z-score) [22]: -0.121 | glycan array binding signal (z-score) (Neu5Gc(a2-6)GalNAc): 2.2 | glycan array binding signal (z-score) [23]: -0.39 | glycan array binding signal (z-score) [24]: -0.504 | glycan array binding signal (z-score) [25]: -0.091 | glycan array binding signal (z-score) [26]: -0.323 | glycan array binding signal (z-score) [27]: -0.412

From the supplement of paper PMC8728848
